Test results: PubChem BioAssay AID1645887 (National Center for Advancing Translational Sciences (NCATS), 2021)
Where “and” joins values, the source holds several entries; their conditions need not be identical. Equal values may be shown once. Hit rate of the full screen: of about 16,000 compounds, about 40 (0.2%) were called active. Another 1% or so got no clear call; they are omitted. The call rests on the fitted dose curve; in most records, active means well fitted activation curve with a large enough effect; inconclusive means small, poorly fitted or top-dose-only effect, or another doubt; inactive means no such curve, though single readings can be large or run the other way. The list shows a part of the results.

Molecular target: Rap guanine nucleotide exchange factor 4 (Homo sapiens) (UniProt Q8WZA2)
Chain of UniProt Q8WZA2 (Q8WZA2 whole entry, looked up): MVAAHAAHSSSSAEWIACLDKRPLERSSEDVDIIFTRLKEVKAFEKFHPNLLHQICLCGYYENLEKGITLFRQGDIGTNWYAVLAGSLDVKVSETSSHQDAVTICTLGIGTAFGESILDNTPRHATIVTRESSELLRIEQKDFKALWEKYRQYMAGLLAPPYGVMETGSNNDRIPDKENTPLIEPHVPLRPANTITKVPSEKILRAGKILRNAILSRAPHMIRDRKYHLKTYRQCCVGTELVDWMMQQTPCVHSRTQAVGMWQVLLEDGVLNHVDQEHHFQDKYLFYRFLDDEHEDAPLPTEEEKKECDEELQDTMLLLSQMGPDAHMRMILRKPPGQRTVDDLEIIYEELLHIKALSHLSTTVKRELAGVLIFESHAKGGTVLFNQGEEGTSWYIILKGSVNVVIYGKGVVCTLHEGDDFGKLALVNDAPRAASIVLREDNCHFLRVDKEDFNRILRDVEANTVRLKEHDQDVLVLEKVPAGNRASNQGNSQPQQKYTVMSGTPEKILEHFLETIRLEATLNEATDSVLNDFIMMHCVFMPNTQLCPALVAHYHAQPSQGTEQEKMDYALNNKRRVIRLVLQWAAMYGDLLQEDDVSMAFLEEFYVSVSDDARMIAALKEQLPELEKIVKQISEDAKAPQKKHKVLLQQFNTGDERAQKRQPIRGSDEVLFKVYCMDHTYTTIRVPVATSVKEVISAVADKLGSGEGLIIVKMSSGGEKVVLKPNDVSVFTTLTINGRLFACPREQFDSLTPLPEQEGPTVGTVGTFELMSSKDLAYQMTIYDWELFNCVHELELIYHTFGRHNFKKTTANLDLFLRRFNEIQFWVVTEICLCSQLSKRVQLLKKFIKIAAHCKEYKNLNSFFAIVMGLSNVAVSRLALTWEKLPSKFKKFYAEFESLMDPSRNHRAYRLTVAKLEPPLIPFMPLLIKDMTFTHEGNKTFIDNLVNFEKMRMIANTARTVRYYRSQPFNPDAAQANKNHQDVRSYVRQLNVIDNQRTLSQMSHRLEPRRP
Assay: Validation qHTS for agonist of cAMP-regulated guanine nucleotide exchange factor 4 (EPAC2);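 further: exchange makes BODIPY-GDP fluorescence drop when released from Rap1B; series mostly up to about 150 µM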
Details: EPAC2 Rap1B BODIPY-GDP exchange, fluorescence; activation: hits give high values
Method in brief: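 Signal normalized against 6.5 mM cAMP as agonist control. Mix of EPAC2 (100 nM), RAP1B-BODIPY-GDP (250 nM) and GDP (50 uM) was read kinetically at 480/540 nm, every 5 min over 30 min, after 5 min room-temperature incubation with compound.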
On the % scale 0 is the no-effect control and ±100 the full control effect.

activation, inactive:
CN1CCc2cc3c(cc2[C@@H]1[C@@H]1C(=O)Oc2c1ccc1c2OCO1)OCO3 -14.9%
Cc1nc2ccccc2nc1/C=C/c1ccc(N(C)C)cc1 -42.8%
CC1CCCC(C)N1NC(=O)c1ccc(Cl)c(S(N)(=O)=O)c1 (configuration not stated) -21.7% and 1.5%
O=S1(=O)CCO[C@H]2Cc3ccccc3[C@H]2N1Cc1cccc(C(F)(F)F)c1 -29.1%
O=C(c1cccc(F)c1)N1CCC2(CCCN(Cc3ccncc3)C2)CC1 -20.1%
O=c1cnc2cnc(N3CCNCC3)nc2n1CCc1ccccc1 -14%
Cc1noc(C)c1C(=O)N1CCC2(CCCN(C(=O)NC(C)C)C2)CC1 -10.7%
COc1cccc(-n2c(SC)nnc2C2CCN(Cc3cccc(OC)c3O)CC2)c1 -21.3%
Cc1cccc(CNc2nc(-c3ccc(C(=O)N(C)C)cc3)nc3ccccc23)c1 -24.7%
Nc1nnc(-c2cccc(Cl)c2Cl)c(N)n1 -4.69% and 6.66% and -60.6%
COc1cccc(Nc2ncc3nc(C)c(=O)n(CCC#N)c3n2)c1 -14.2%
Oc1cc(O)cc(/C=C/c2ccc(O)c(O)c2)c1 -20% and -25.6%
Cc1c(CN2CCOc3ccc(C(C)(O)COc4ccccc4)cc3C2)cnn1C (configuration not stated) -5.48%
COc1ccc(-n2c(=O)cnc3cnc(Nc4ccccc4)nc32)cc1 -30%
CCCCN1CC[C@H]2C=CC[C@@H](C(=O)NC3CCCCC3)[C@H]2C1=O -18.1%
COC(=O)N1CCC2(CCN(C(=O)Nc3cccc(C#N)c3)CC2)CC1 -9.08%
CC(C)NC(=O)N1CC[C@@]2(CCCN(C(=O)c3cc(C(F)(F)F)cc(C(F)(F)F)c3)C2)C1 -7.69%
CC(=O)N1CCC[C@@]2(CCN(C(c3ccccc3)c3ccccc3)C2)C1 -10.1%
C[C@@H](C[C@H](N)C(=O)O)C(=O)O 11.6%
CC(C)(S)[C@H](N)C(=O)O 1.22%
Clc1cc(Cl)c(OCC#CI)cc1Cl -6.15%
O=C(C[C@H]1C(=O)N(Cc2ccccc2)C[C@@H]1Cc1ccccc1)Nc1ccccc1 -27.3%
O=C(O)/C=C(\CC(=O)O)C(=O)O 3.85% and 0.532%
CN(C)c1ncnc2ccc(-c3cccc(NS(C)(=O)=O)c3)cc12 -5.03%
COc1ccc(-c2nc3cnc(Nc4ccccc4)nc3n(C[C@H]3CCCO3)c2=O)cc1 1.11%
C=C1CCC(=O)C(C)CCC2C1CC2(C)C (configuration not stated) -0.201%
N=C(N)c1ccc(OCCCCCOc2ccc(C(=N)N)cc2)cc1 (tested in a mixture with another compound) -12.6%
OCC(O)C(O)C(O)CO (configuration not stated) -1.94%
Cc1cccc2cc(CN(C(=O)c3ccc(C(F)(F)F)cc3)C3CC3)c(N3CCC(O)CC3)nc12 -20.5%
COc1cc(CNc2nc(C)c(-c3ccn(C4Cc5ccccc5C4)n3)s2)cc2c1OCO2 13.5%
COc1cccc(Nc2ncc3nc(C)c(=O)n(Cc4cccs4)c3n2)c1 -6.59%
CSc1nnc(CNC(=O)c2cccc3ccccc23)n1-c1ccccc1C -11.2%
O=c1oc2ccccc2cc1O -7.15%
CN(C)CCCN1c2ccccc2C(C)(C)c2ccccc21 -8.74%
COc1cccc(/C=C/C(=O)O)c1C(C)C -6.75%
O=c1c(-c2ccc(F)cc2)nc2cnc(N3CCNCC3)nc2n1C1CC1 0.287%
COc1ccccc1CN1CCCC2(CCN(C(=O)c3csnn3)CC2)C1 -5.89%
O=c1c(-c2ccccc2)c1-c1ccccc1 -4.61%
CCn1c(-c2ccccc2F)nc2cc(C(=O)N3CCNC(=O)C3CC(=O)OC)cc(NC(C)=O)c21 (configuration not stated) 1.31%
C=C1C(=O)OC2C1CC/C(C)=C/CCC1(C)OC21 (configuration not stated) -0.461%
O=C1c2ccccc2CCC1CNCCc1ccc(O)cc1 (configuration not stated) -18.3%
COC(=O)C1OC(=O)C2OC23[C@]2(C)C(O)CC4C(C)(C)C(OC(C)=O)CC(OC(C)=O)[C@@]4(C)C2CC[C@@]13C (some centres not stated) -9.8% and -50.1%
Cc1cnc(CNc2cc(-c3cccnc3)ncn2)cn1 4.43%
O=C(O)CCc1cc(I)c(O)c(I)c1 -3.33%
Cc1ccc(C(C)C)c(O)c1 -2.95%
COCc1ccc(CN2CCOc3c(O)cc(-c4cc(C)c5ccc(F)cc5n4)cc3C2)o1 8.6%
CC/C=C\C/C=C\C/C=C\CCCCCCCC(=O)O -2.94% and 9.05% and -6.75%
COc1cc(O)c(C(=O)c2ccccc2)cc1O 1.34%
CCn1cc(CN2Cc3ccccc3OC(c3ccccc3OC)C2)c(C)n1 (configuration not stated) -24.8%
O.O=C([O-])CC([S-])C(=O)[O-].[Au+].[Na+].[Na+] (configuration not stated) -18.4%
Cn1c(=O)c(-c2ccccc2)nc2cnc(Oc3ccccc3)nc21 0.748%
COc1ccc2[nH]cc(CCNc3ncnc4ccc(-c5c(C)noc5C)cc34)c2c1 9.93%
Cc1noc(C)c1C(=O)N1CCC2(CCCN(C(c3ccccc3)c3ccccc3)C2)CC1 -12%
COc1ccc(CN2CCC3(CCC(CNC(=O)C4CCCO4)O3)CC2)c(C)c1C (configuration not stated) -3.88%
FC(F)(F)c1ccccc1-c1cncnc1NCc1ccccc1 -7.08%
Cc1ccc(C(=O)N(Cc2cc3cc4c(cc3nc2N2CCOCC2)CCC4)CC2CCCO2)s1 (configuration not stated) 6.08%
O=C1CCCC2[C@@H]3CCC[N@+]4([O-])CCC[C@H](CN12)C34 (some centres not stated) -9.87%
C[N+]1(C)CCN(CC(O)(c2ccccc2)C2CCCCC2)CC1 (configuration not stated) -6.07%
COc1cc(=O)n2c(c1C(=O)NC(C)c1ccco1)CCN(C(=O)c1cc(C)cc(C)c1)CC2 (configuration not stated) -3.51%
COCC(=O)N1CCC2(CCCN(c3cccc(-c4ccccc4)c3)C2)CC1 -4.35%
CCOCCn1c(N2CCCN(C)CC2)nc2ccccc21 3.02%
COc1ccc(OC)c(-c2cc(Cl)c3c(c2)CC(CNC(=O)c2coc4c2C(=O)CCC4)O3)c1 (configuration not stated) 4.71%
Cc1ccccc1CN1[C@H]2CCCC[C@@H]2OCCS1(=O)=O -11.5%
COCCn1c(=O)c(C)nc2cnc(Oc3ccc(OC)cc3)nc21 -3.69%
O=C(c1cnccn1)N1CCC2(CC1)CN(c1ccncc1)C2 7.9%
O=S(=O)(c1cccc2c(Cl)cccc12)N1CCCNCC1 -12.1% and -7.89% and -23.1%
CCCc1c(OCCCOc2ccc(OCC(=O)O)cc2)ccc(C(C)=O)c1O -57.2%
COc1ccc2[nH]cc(CCNc3ncnc4ccc(-c5ccccc5C#N)cc34)c2c1 2.83%
O=C1CC2(CCCC2)CC(=O)N1CCCCNCC1COc2ccccc2O1 (configuration not stated) 0.718%
CC1=C(C(=O)O)N2C(=O)[C@@H](NC(=O)[C@H](N)c3ccccc3)[C@H]2SC1 -1.92%
COc1cccc(C(=O)NCC2Cc3cccc(-c4nc(C)cnc4C)c3O2)c1OC (configuration not stated) -1.46%
CSc1ccccc1C(=O)NCC1Cc2cc(F)cc(-c3cnccn3)c2O1 (configuration not stated) -20.6%
NC(N)=[N+]1CCc2ccccc2C1 -25.6%
Cc1noc(C)c1-c1cncnc1NCc1cccnc1 -20.9%
O=C1CCC[C@@H]2C[C@@]3(C[C@@H]4CCN1[C@H]24)Nc1ccccc1NC3=NC1CCCCC1 -10.5%
CC[C@H](C)C(=O)O[C@H]1C[C@H](O)C=C2C=C[C@H](C)[C@H](CC[C@@H](O)C[C@@H](O)CC(=O)O)[C@H]21 7.96%
Cc1cccn2c(=O)c(-c3nnn[nH]3)cnc12 2.42%
COc1cc2nc(N(C)C)c(CNCc3cccc4ccccc34)cc2c(OC)c1OC -13.9%
COc1ccccc1-c1ccc(C(=O)N(C)C(C)c2ccon2)c(N2CCN(c3ccccc3F)CC2)n1 (configuration not stated) -23.4%
C=C1C(=O)OC2CC1C(OC(C)=O)CC(C)=CCCC(C)=CCC[C@@]2(C)O (some centres not stated) -9.58%
Cc1ccc(S(=O)(=O)/C=C/C#N)cc1 4.92% and -22.1%
O=C(/C=C/c1ccc(O)cc1)c1c(O)cc(O)cc1O -3.54%
CCCn1c(=O)c2[nH]c(-c3ccc(OCC(=O)NCCN)cc3)nc2n(CCC)c1=O -100%
CC(C)(C)NCC(O)COc1cccc2c1CC(O)C(O)C2 (configuration not stated) 9.61%
COC(=O)[C@@H]1CCCN1Cc1ccc2c(c1)CN(Cc1cccn1-c1ccccn1)CCO2 -7.02%
c1cncc(CNc2ncnc3ccc(-c4cccnc4)cc23)c1 4.81%
C=C[C@]1(C)C[C@@H](OC(=O)CO)[C@]2(C)[C@H](C)CC[C@]3(CCC(=O)[C@H]32)[C@@H](C)[C@@H]1O 21.3%
